Source: the supplement of paper PMC3334620
The full ranking holds about 33,000 sequences; the median of “E-score (-0.5 to 0.5)” is about -0.036, and the highest 2% start at about 0.37. The list shows a part of the results.

biological target: T1, Yer064c (UniProt P40041); test: PBM E-score (8-mer binding enrichment) (E-score (-0.5 to 0.5)); higher = stronger / more preferred TF binding; most listed sequences are background and not binding sites; settings: protein concentration: 200 nM; construct: GST-full length
T1 sequence: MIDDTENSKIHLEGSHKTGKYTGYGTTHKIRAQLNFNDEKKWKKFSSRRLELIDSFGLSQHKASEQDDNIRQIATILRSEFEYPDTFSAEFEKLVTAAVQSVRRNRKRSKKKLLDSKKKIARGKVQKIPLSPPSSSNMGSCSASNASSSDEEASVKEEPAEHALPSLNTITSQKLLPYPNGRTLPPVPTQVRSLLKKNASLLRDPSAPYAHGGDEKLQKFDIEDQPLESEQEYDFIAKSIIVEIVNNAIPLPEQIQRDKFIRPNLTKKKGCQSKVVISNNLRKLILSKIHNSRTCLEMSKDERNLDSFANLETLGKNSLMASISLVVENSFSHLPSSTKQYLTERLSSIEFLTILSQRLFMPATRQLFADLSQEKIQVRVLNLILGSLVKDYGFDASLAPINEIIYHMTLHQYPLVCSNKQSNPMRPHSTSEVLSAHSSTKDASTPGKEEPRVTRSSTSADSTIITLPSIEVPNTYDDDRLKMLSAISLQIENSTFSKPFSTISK
Procedure, shortened: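 The E-score, a modified Wilcoxon-Mann-Whitney statistic, was computed by the Universal PBM Analysis Suite for every ungapped eight-base word pooled with its reverse complement. Scans behind it were normalised with masliner after bound GST-tagged yeast transcription factors were detected with fluorescent anti-GST. The proteins, at about 100-200 nM, had been applied to universal all-10-mer Agilent arrays made double-stranded by primer extension.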

Sequence | PBM E-score
ATTCTGTC | -0.0466
ACATAGCT | -0.134
GTTGTCAA | -0.103
CCCGGTCA | -0.0403
GCACATGA | 0.14
GCTATTAA | 0.0172
GGAATACC | -0.355
AGAAAACC | -0.111
TCACTTAA | 0.218
ATATTGAC | 0.219
AAGCCCCT | -0.335
ACCATTAG | 0.0275
GTAATACA | 0.0916
CGACGTTA | 0.0817
ACTACGGC | -0.00844
GACGCGGC | -0.176
CAAGCGGC | -0.14
CTCTTTAC | 0.034
ACTTGACA | 0.0454
ATTGACCC | 0.00864
ACTCAACG | 0.288
ATAGGTGG | -0.087
ACTTAAGG | 0.228
ACGGCGCT | -0.0852
TACGACGA | 0.071

Sequence | PBM E-score
CAAATCAG | 0.208
GGGGCCCA | -0.291
CATTCCGA | -0.0329
CTGATAGC | -0.0361
GGCTCATA | 0.217
CCTAAATA | -0.0432
AGCACCTC | -0.262
ACCCCAAA | -0.029
ATATTTCA | 0.109
AACAAGGG | -0.0996
AAACAAAC | 0.0763
CGCATCAA | -0.00581
AAAATGGT | 0.00681
CTCCCAAA | 0.141
AAGATCTG | 0.00725
ACATCCCT | -0.0971
ATGTCCTA | -0.238
TGTAGGAA | -0.159
AAGAGCTG | -0.0948
CACGTCCC | -0.187
AGGTTGAA | 0.0183
AAATACCG | -0.0967
AGGCCCAA | -0.247
CGCCACAG | -0.142
TTATAGAA | 0.0296

Sequence | PBM E-score
AGCAGTCA | 0.412
CCGAAATA | 0.0359
CCTGTTTC | -0.011
ATTGAAAG | 0.127
ACTTTTGG | 0.101
AAACCGTG | -0.0801
GCCGCATA | -0.114
CCTGCAGC | -0.154
CCGTTACA | 0.0357
TATCCATA | 0.11
TGCCAACA | -0.152
TATCGGGA | -0.096
AGTTAGTG | 0.0232
AAATAGAT | -0.0973
ACCGGCGA | -0.129
ACTGTGAT | 0.165
ATAAGCAC | -0.17
CATATAGG | -0.0672
TACTGACA | -0.0596
CTCTATAA | 0.0662
AAACTATC | -0.068
GGCCAATA | -0.279
ACATCATC | 0.212
CTGGGTGC | -0.149
CGATTCCG | 0.128

Sequence | PBM E-score
AGCTTACA | 0.082
CTCGTAGA | 0.0746
GGGAGGAA | -0.181
TAGCGGCA | -0.267
AAACCAGC | -0.106
GAAGTGGA | -0.108
CCGGACAA | -0.00254
AACGCGGC | -0.203
GACCTCCA | -0.142
TCCGGCGA | -0.00403
GGAGTATA | 0.00857
GTGATCGA | 0.031
CGGTCTTC | -0.183
CCCATGAG | 0.056
GGAAAGCC | -0.131
ATGAATGA | 0.234
TGGTGCAA | -0.315
ATTGGCCA | -0.121
GTCCCTTA | -0.172
AACGACGA | 0.15
GAGAGCTA | -0.264
ACCGTACA | -0.133
GAAGATGA | 0.159
GTACGCCA | -0.159
CTGACTAC | 0.469

Sequence | PBM E-score
ACTAAACG | 0.171
CACCGCAC | -0.0803
GCATGGCA | -0.221
ACGGGTAA | 0.143
CAGCTTGG | -0.0107
GCGAAACC | -0.0667
AAAGGAAC | -0.0949
GCGCCCAA | -0.077
TCTATAGA | -0.113
CTAACCTC | 0.0602
GAGGCCCC | -0.363
AGGCCCAT | -0.0515
CCGAGAGC | -0.217
ATTAGCAA | 0.0422
AAAGGTTA | -0.0216
ACCGCCGC | -0.0775
TATCGTAA | 0.00386
ACCGCGTC | -0.127
GGTGATAC | -0.0115
AAAAGCAG | -0.0138
ACACGTGC | -0.0356
ATAAGGAC | 0.00656
CAACGGTA | -0.12
ACGGGAGC | -0.0353
CACAGCAG | 0.0201

Sequence | PBM E-score
TAGGTCCA | -0.16
CCAGATGA | 0.187
AATACGTA | -0.0805
TATCTTAA | 0.106
ATTATCAC | 0.0883
GGGGGCGA | -0.27
CATGAACG | -0.145
AGTCTCAC | 0.337
CTGGCACC | -0.315
CCCAAGCC | -0.171
AATCGATT | 0.26
CAGCCACA | 0.0182
CTGCGTAC | -0.105
GTGTGTAA | 0.185
AGAACCAC | -0.00253
ACGATCGT | 0.241
GTGGGGAA | -0.113
CCTCTTGA | 0.149
GGCCTGTA | -0.386
CTGCGCAC | -0.017
AAGGCCAT | -0.0293
GCCGGTCA | -0.296
GGTGTTAA | 0.00491
CGAGTTAC | 0.0312
GCGAAACA | 0.133

Sequence | PBM E-score
ACCATTGC | -0.132
AGAGGTTC | -0.2
CTCAATTC | 0.0515
CTCACGAG | 0.0978
ATCATGCA | 0.225
CCGAATAC | -0.0874
AAATAATG | 0.0711
GGACGAAC | -0.0589
GCTAAGCA | -0.0533
CACATTGA | 0.0834
ATATGGTA | 0.0907
AACGTAGT | 0.141
CGTTGTAA | -0.0976
ACCCTGGC | -0.16
GTAAGATA | -0.00585
TATCAAAA | 0.136
ATATACAA | 0.0885
GATCACAA | 0.164
ACTACATC | 0.195
CTCGTCAC | 0.107
GAAACGGC | -0.195
CAACTTTA | 0.0743
